{
  "source": "paper PMC4150796",
  "molecules": {"B1": {"name": "35S-labeled EBNA3A, in vitro translated (protein, UniProt P12977 1-944)", "chain": "MDKDRPGPPALDDNMEEEVPSTSVVQEQVSAGDWENVLIELSDSSSEKEAEDAHLEPAQKGTKRKRVDHDAGGSAPARPMLPPQPDLPGREAILRRFPLDLRTLLQAIGAAATRIDTRAIDQFFGSQISNTEMYIMYAMAIRQAIRDRRRNPASRRDQAKWRLQTLAAGWPMGYQAYSSWMYSYTDHQTTPTFVHLQATLGCTGGRRCHVTFSAGTFKLPRCTPGDRQWLYVQSSVGNIVQSCNPRYSIFFDYMAIHRSLTKIWEEVLTPDQRVSFMEFLGFLQRTDLSYIKSFVSDALGTTSIQTPWIDDNPSTETAQAWNAGFLRGRAYGIDLLRTEGEHVEGATGETREESEDTESDGDDEDLPCIVSRGGPKVKRPPIFIRRLHRLLLMRAGKRTEQGKEVLEKARGSTYGTPRPPVPKPRPEVPQSDETATSHGSAQVPEPPTIHLAAQGMAYPLHEQHGMAPCPVAQAPPTPLPPVSPGDQLPGVFSDGRVACAPVPAPAGPIVRPWEPSLTQAAGQAFAPVRPQHMPVEPVPVPTVALERPVYPKPVRPAPPKIAMQGPGETSGIRRARERWRPAPWTPNPPRSPSQMSVRDRLARLRAEAQVKQASVEVQPPQLTQVSPQQPMEGPLVPEQQMFPGAPFSQVADVVRAPGVPAMQPQYFDLPLIQPISQGAPVAPLRASMGPVPPVPATQPQYFDIPLTEPINQGASAAHFLPQQPMEGPLVPEQWMFPGAALSQSVRPGVAQSQYFDLPLTQPINHGAPAAHFLHQPPMEGPWVPEQWMFQGAPPSQGTDVVQHQLDALGYTLHGLNHPGVPVSPAVNQYHLSQAAFGLPIDEDESGEGSDTSEPCEALDLSIHGRPCPQAPEWPVQEEGGQDATEVLDLSIHGRPRPRTPEWPVQGEGGQNVTGPETRRVVVSAVVHMCQDDEFPDLQDPPDEA", "modifications": "35S-methionine"}, "B2": {"name": "SNAP-associated protein, full-length, expressed in HEK293T cells (protein, UniProt O95295 1-136)", "chain": "MAGAGSAAVSGAGTPVAGPTGRDLFAEGLLEFLRPAVQQLDSHVHAVRESQVELREQIDNLATELCRINEDQKVALDLDPYVKKLLNARRRVVLVNNILQNAQERLRRLNHSVAKETARRRAMLDSGIYPPGSPGK"}, "B3": {"name": "Protein phosphatase 5, catalytic subunit, full-length, expressed in HEK293T cells (protein, UniProt P53041 1-499)", "chain": "MAMAEGERTECAEPPRDEPPADGALKRAEELKTQANDYFKAKDYENAIKFYSQAIELNPSNAIYYGNRSLAYLRTECYGYALGDATRAIELDKKYIKGYYRRAASNMALGKFRAALRDYETVVKVKPHDKDAKMKYQECNKIVKQKAFERAIAGDEHKRSVVDSLDIESMTIEDEYSGPKLEDGKVTISFMKELMQWYKDQKKLHRKCAYQILVQVKEVLSKLSTLVETTLKETEKITVCGDTHGQFYDLLNIFELNGLPSETNPYIFNGDFVDRGSFSVEVILTLFGFKLLYPDHFHLLRGNHETDNMNQIYGFEGEVKAKYTAQMYELFSEVFEWLPLAQCINGKVLIMHGGLFSEDGVTLDDIRKIERNRQPPDSGPMCDLLWSDPQPQNGRSISKRGVSCQFGPDVTKAFLEENNLDYIIRSHEVKAEGYEVAHGGRCVTVFSAPNYCDQMGNKASYIHLQGSDLRPQFHQFTAVPHPNVKPMAYANTLLQLGMM"}, "B4": {"name": "Importin 5, full-length, expressed in HEK293T cells (protein, UniProt O00410 1-1097)", "chain": "MAAAAAEQQQFYLLLGNLLSPDNVVRKQAEETYENIPGQSKITFLLQAIRNTTAAEEARQMAAVLLRRLLSSAFDEVYPALPSDVQTAIKSELLMIIQMETQSSMRKKVCDIAAELARNLIDEDGNNQWPEGLKFLFDSVSSQNVGLREAALHIFWNFPGIFGNQQQHYLDVIKRMLVQCMQDQEHPSIRTLSARATAAFILANEHNVALFKHFADLLPGFLQAVNDSCYQNDDSVLKSLVEIADTVPKYLRPHLEATLQLSLKLCGDTSLNNMQRQLALEVIVTLSETAAAMLRKHTNIVAQTIPQMLAMMVDLEEDEDWANADELEDDDFDSNAVAGESALDRMACGLGGKLVLPMIKEHIMQMLQNPDWKYRHAGLMALSAIGEGCHQQMEGILNEIVNFVLLFLQDPHPRVRYAACNAVGQMATDFAPGFQKKFHEKVIAALLQTMEDQGNQRVQAHAAAALINFTEDCPKSLLIPYLDNLVKHLHSIMVLKLQELIQKGTKLVLEQVVTSIASVADTAEEKFVPYYDLFMPSLKHIVENAVQKELRLLRGKTIECISLIGLAVGKEKFMQDASDVMQLLLKTQTDFNDMEDDDPQISYMISAWARMCKILGKEFQQYLPVVMGPLMKTASIKPEVALLDTQDMENMSDDDGWEFVNLGDQQSFGIKTAGLEEKSTACQMLVCYAKELKEGFVEYTEQVVKLMVPLLKFYFHDGVRVAAAESMPLLLECARVRGPEYLTQMWHFMCDALIKAIGTEPDSDVLSEIMHSFAKCIEVMGDGCLNNEHFEELGGILKAKLEEHFKNQELRQVKRQDEDYDEQVEESLQDEDDNDVYILTKVSDILHSIFSSYKEKVLPWFEQLLPLIVNLICPHRPWPDRQWGLCIFDDVIEHCSPASFKYAEYFLRPMLQYVCDNSPEVRQAAAYGLGVMAQYGGDNYRPFCTEALPLLVRVIQSADSKTKENVNATENCISAVGKIMKFKPDCVNVEEVLPHWLSWLPLHEDKEEAVQTFNYLCDLIESNHPIVLGPNNTNLPKIFSIIAEGEMHEAIKHEDPCAKRLANVVRQVQTSGGLWTECIAQLSPEQQAAIQELLNSA"}, "B5": {"name": "Mediator complex subunit 25, full-length, expressed in HEK293T cells (protein, UniProt Q71SY5 1-747)", "chain": "MVPGSEGPARAGSVVADVVFVIEGTANLGPYFEGLRKHYLLPAIEYFNGGPPAETDFGGDYGGTQYSLVVFNTVDCAPESYVQCHAPTSSAYEFVTWLDGIKFMGGGGESCSLIAEGLSTALQLFDDFKKMREQIGQTHRVCLLICNSPPYLLPAVESTTYSGCTTENLVQQIGERGIHFSIVSPRKLPALRLLFEKAAPPALLEPLQPPTDVSQDPRHMVLVRGLVLPVGGGSAPGPLQSKQPVPLPPAAPSGATLSAAPQQPLPPVPPQYQVPGNLSAAQVAAQNAVEAAKNQKAGLGPRFSPITPLQQAAPGVGPPFSQAPAPQLPPGPPGAPKPPPASQPSLVSTVAPGSGLAPTAQPGAPSMAGTVAPGGVSGPSPAQLGAPALGGQQSVSNKLLAWSGVLEWQEKPKPASVDANTKLTRSLPCQVYVNHGENLKTEQWPQKLIMQLIPQQLLTTLGPLFRNSRMVQFHFTNKDLESLKGLYRIMGNGFAGCVHFPHTAPCEVRVLMLLYSSKKKIFMGLIPYDQSGFVNGIRQVITNHKQVQQQKLEQQQRGMGGQQAPPGLGPILEDQARPSQNLLQLRPPQPQPQGTVGASGATGQPQPQGTAQPPPGAPQGPPGAASGPPPPGPILRPQNPGANPQLRSLLLNPPPPQTGVPPPQASLHHLQPPGAPALLPPPHQGLGQPQLGPPLLHPPPAQSWPAQLPPRAPLPGQMLLSGGPRGPVPQPGLQPSVMEDDILMDLI"}},
  "note": "Results are given in words; binding and its absence hold for the method and conditions named. In cells and extracts the contact can be indirect. Some entries that bind do so weakly or less than the wild type.",
  "data": [
    {"target": "GST-MIZ-1 383–803 (human) (UniProt Q13105)", "experiment": "pull-down; GST or GST fusion on glutathione-Sepharose 4B beads incubated with 35S-labeled in vitro translated protein; 10 mM Tris-HCl pH 8, 250 mM NaCl, 0.1% NP40, 2 mg/ml BSA, 4 h at 4°C; autoradiography; only the target purified", "values": [
      {"molecule": "35S-labeled EBNA3B, in vitro translated (from UniProt P03203 1-938)", "binding": "binds"},
      {"molecule": "35S-labeled EBNA3C, in vitro translated (from UniProt P03204 1-992)", "binding": "binds"},
      {"molecule": "EBNA3A 1–172 (deletion mutant) (from UniProt P12977 1-172) (domain or fragment)", "binding": "no binding"},
      {"molecule": "B1", "binding": "binds"}
    ]},
    {"target": "EBNA3B, full-length, expressed in HEK293T cells (Epstein–Barr virus) (UniProt P03203)", "experiment": "co-IP; HEK293T cells transfected with expression plasmids for full-length proteins; IP buffer 50 mM Tris-HCl pH 7.5, 150–300 mM NaCl, 1 mM DTT, 0.5% Nonidet P-40; which partner was precipitated is not told", "values": [
      {"molecule": "B2", "binding": "binds"},
      {"molecule": "B3", "binding": "binds"},
      {"molecule": "B4", "binding": "binds"},
      {"molecule": "B5", "binding": "binds"}
    ]},
    {"target": "EBNA3C, full-length, expressed in HEK293T cells (Epstein–Barr virus) (UniProt P03204)", "experiment": "co-IP; HEK293T cells transfected with expression plasmids for full-length proteins; IP buffer 50 mM Tris-HCl pH 7.5, 150–300 mM NaCl, 1 mM DTT, 0.5% Nonidet P-40; which partner was precipitated is not told", "values": [
      {"molecule": "B2", "binding": "binds"},
      {"molecule": "B3", "binding": "binds"},
      {"molecule": "B4", "binding": "binds"},
      {"molecule": "B5", "binding": "binds"}
    ]},
    {"target": "T1, EBNA3A, full-length, expressed in HEK293T cells (Epstein–Barr virus) (UniProt P12977)", "T1 sequence": "B1 chain", "experiment": "co-IP; HEK293T cells transfected with expression plasmids for full-length proteins; IP buffer 50 mM Tris-HCl pH 7.5, 150–300 mM NaCl, 1 mM DTT, 0.5% Nonidet P-40; which partner was precipitated is not told", "values": [
      {"molecule": "B2", "binding": "binds"},
      {"molecule": "B3", "binding": "binds"},
      {"molecule": "B4", "binding": "binds"},
      {"molecule": "B5", "binding": "binds"}
    ]}
  ]
}
